Measured values published in PMC12820563.
The other results are listed elsewhere or left out. The list includes weakly bound sequences.

The sequences below were run against T1, MBP-FoxP3dN (UniProt Q99JB6) (assay: PD-seq (MBP pull-down with sequencing)). Conditions: 20 mM Tris-HCl pH 7.5, 100 mM NaCl, 1.5 mM MgCl2, 0.4 uM protein, 0.1 uM dsDNA library, 30 min, room temperature, amylose pull-down; high values mean tight binding; double strand, one strand shown.
T1 sequence: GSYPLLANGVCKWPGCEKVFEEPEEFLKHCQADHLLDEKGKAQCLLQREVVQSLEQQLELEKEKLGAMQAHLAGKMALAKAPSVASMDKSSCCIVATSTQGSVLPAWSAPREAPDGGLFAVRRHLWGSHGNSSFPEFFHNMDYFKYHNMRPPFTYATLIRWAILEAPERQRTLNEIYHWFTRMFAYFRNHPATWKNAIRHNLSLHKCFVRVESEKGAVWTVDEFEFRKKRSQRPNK

Row | Sequence | binding signal (RPM ratio (pull-down/input))
1 | GATGATTGTTCTCCCAGCTGATGAATTCCCATCGTCGAGTAAACAAATTTTCCTAATCTTTCTGTTCAAGCGCCATCTAC | 0.366
2 | GATGATTGTTCTCCCAGCTGATGAATTGGCGCTTTCGAGTAAACAAATTTTCCTAATCTTTCTGTTCAAGCGCCATCTAC | 1.23
3 | GATGATTGTTCTCCCAGCTGATGAATTTTATCGCTCGAGTAAACAAATTTTCCTAATCTTTCTGTTCAAGCGCCATCTAC | 0.542
4 | GATGATTGTTCTCCCAGCTGATGAATTCTTGTTTTCGAGTAAACAAATTTTCCTAATCTTTCTGTTCAAGCGCCATCTAC | 1.83
5 | GATGATTGTTCTCCCAGCTGATGAATTGGAGCAATCGAGTAAACAAATTTTCCTAATCTTTCTGTTCAAGCGCCATCTAC | 1.66
6 | GATGATTGTTCTCCCAGCTGATGAATTGGCTCATTCGAGTAAACAAATTTTCCTAATCTTTCTGTTCAAGCGCCATCTAC | 0.367
7 | GATGATTGTTCTCCCAGCTGATGAATTCAATCTTTCGAGTAAACAAATTTTCCTAATCTTTCTGTTCAAGCGCCATCTAC | 0.304
8 | GATGATTGTTCTCCCAGCTGATGAATTTTAGTATTCGAGTAAACAAATTTTCCTAATCTTTCTGTTCAAGCGCCATCTAC | 1.58
9 | GATGATTGTTCTCCCAGCTGATGAATTTCCTCAGTCGAGTAAACAAATTTTCCTAATCTTTCTGTTCAAGCGCCATCTAC | 0.181
10 | GATGATTGTTCTCCCAGCTGATGAATTAAGCCACTCGAGTAAACAAATTTTCCTAATCTTTCTGTTCAAGCGCCATCTAC | 5.24
11 | GATGATTGTTCTCCCAGCTGATGAATTTGAATCATCGAGTAAACAAATTTTCCTAATCTTTCTGTTCAAGCGCCATCTAC | 0.702
12 | GATGATTGTTCTCCCAGCTGATGAATTTATCCAATCGAGTAAACAAATTTTCCTAATCTTTCTGTTCAAGCGCCATCTAC | 0.496
13 | GATGATTGTTCTCCCAGCTGATGAATTCCCCCCATCGAGTAAACAAATTTTCCTAATCTTTCTGTTCAAGCGCCATCTAC | 0.234
14 | GATGATTGTTCTCCCAGCTGATGAATTGACTGTGTCGAGTAAACAAATTTTCCTAATCTTTCTGTTCAAGCGCCATCTAC | 0.621
15 | GATGATTGTTCTCCCAGCTGATGAATTGACAGAATCGAGTAAACAAATTTTCCTAATCTTTCTGTTCAAGCGCCATCTAC | 0.263
16 | GATGATTGTTCTCCCAGCTGATGAATTGGGTCACTCGAGTAAACAAATTTTCCTAATCTTTCTGTTCAAGCGCCATCTAC | 0.546
17 | GATGATTGTTCTCCCAGCTGATGAATTTGTGCTTTCGAGTAAACAAATTTTCCTAATCTTTCTGTTCAAGCGCCATCTAC | 2.84
18 | GATGATTGTTCTCCCAGCTGATGAATTGAATCCATCGAGTAAACAAATTTTCCTAATCTTTCTGTTCAAGCGCCATCTAC | 0.369
19 | GATGATTGTTCTCCCAGCTGATGAATTATTGCTCTCGAGTAAACAAATTTTCCTAATCTTTCTGTTCAAGCGCCATCTAC | 0.744
20 | GATGATTGTTCTCCCAGCTGATGAATTTGATTGCTCGAGTAAACAAATTTTCCTAATCTTTCTGTTCAAGCGCCATCTAC | 5.45

Row | Sequence | binding signal (RPM ratio (pull-down/input))
21 | GATGATTGTTCTCCCAGCTGATGAATTATGAGCCTCGAGTAAACAAATTTTCCTAATCTTTCTGTTCAAGCGCCATCTAC | 0.672
22 | GATGATTGTTCTCCCAGCTGATGAATTAGCGACGTCGAGTAAACAAATTTTCCTAATCTTTCTGTTCAAGCGCCATCTAC | 0.415
23 | GATGATTGTTCTCCCAGCTGATGAATTGGTCGTATCGAGTAAACAAATTTTCCTAATCTTTCTGTTCAAGCGCCATCTAC | 0.775
24 | GATGATTGTTCTCCCAGCTGATGAATTTGAGGCTTCGAGTAAACAAATTTTCCTAATCTTTCTGTTCAAGCGCCATCTAC | 0.585
25 | GATGATTGTTCTCCCAGCTGATGAATTGGACAATTCGAGTAAACAAATTTTCCTAATCTTTCTGTTCAAGCGCCATCTAC | 0.333
26 | GATGATTGTTCTCCCAGCTGATGAATTAATGAATTCGAGTAAACAAATTTTCCTAATCTTTCTGTTCAAGCGCCATCTAC | 0.682
27 | GATGATTGTTCTCCCAGCTGATGAATTGCTTAGATCGAGTAAACAAATTTTCCTAATCTTTCTGTTCAAGCGCCATCTAC | 0.962
28 | GATGATTGTTCTCCCAGCTGATGAATTATCTCGGTCGAGTAAACAAATTTTCCTAATCTTTCTGTTCAAGCGCCATCTAC | 0.195
29 | GATGATTGTTCTCCCAGCTGATGAATTAAGTCGCTCGAGTAAACAAATTTTCCTAATCTTTCTGTTCAAGCGCCATCTAC | 0.441
30 | GATGATTGTTCTCCCAGCTGATGAATTACAACTCTCGAGTAAACAAATTTTCCTAATCTTTCTGTTCAAGCGCCATCTAC | 0.948
31 | GATGATTGTTCTCCCAGCTGATGAATTTTGGCACTCGAGTAAACAAATTTTCCTAATCTTTCTGTTCAAGCGCCATCTAC | 0.628
32 | GATGATTGTTCTCCCAGCTGATGAATTAGGCCTCTCGAGTAAACAAATTTTCCTAATCTTTCTGTTCAAGCGCCATCTAC | 5.5
33 | GATGATTGTTCTCCCAGCTGATGAATTAGATGGGTCGAGTAAACAAATTTTCCTAATCTTTCTGTTCAAGCGCCATCTAC | 0.816
34 | GATGATTGTTCTCCCAGCTGATGAATTGATAGACTCGAGTAAACAAATTTTCCTAATCTTTCTGTTCAAGCGCCATCTAC | 0.417
35 | GATGATTGTTCTCCCAGCTGATGAATTGAGGTGATCGAGTAAACAAATTTTCCTAATCTTTCTGTTCAAGCGCCATCTAC | 0.496
36 | GATGATTGTTCTCCCAGCTGATGAATTTACATAATCGAGTAAACAAATTTTCCTAATCTTTCTGTTCAAGCGCCATCTAC | 0.884
37 | GATGATTGTTCTCCCAGCTGATGAATTGACCTGCTCGAGTAAACAAATTTTCCTAATCTTTCTGTTCAAGCGCCATCTAC | 0.266
38 | GATGATTGTTCTCCCAGCTGATGAATTGGTCCAATCGAGTAAACAAATTTTCCTAATCTTTCTGTTCAAGCGCCATCTAC | 0.286
39 | GATGATTGTTCTCCCAGCTGATGAATTTATCCCGTCGAGTAAACAAATTTTCCTAATCTTTCTGTTCAAGCGCCATCTAC | 0.631
40 | GATGATTGTTCTCCCAGCTGATGAATTTGGGGTATCGAGTAAACAAATTTTCCTAATCTTTCTGTTCAAGCGCCATCTAC | 0.984
